# Source: the supplement of paper PMC3334620
# Whole data set: some 33,000 sequences, median “E-score (-0.5 to 0.5)” near -0.012, cut for the highest 2% near 0.27. Some of the results follow.
# Biological target: T1, Vhr1 (UniProt P40522)
# T1 sequence: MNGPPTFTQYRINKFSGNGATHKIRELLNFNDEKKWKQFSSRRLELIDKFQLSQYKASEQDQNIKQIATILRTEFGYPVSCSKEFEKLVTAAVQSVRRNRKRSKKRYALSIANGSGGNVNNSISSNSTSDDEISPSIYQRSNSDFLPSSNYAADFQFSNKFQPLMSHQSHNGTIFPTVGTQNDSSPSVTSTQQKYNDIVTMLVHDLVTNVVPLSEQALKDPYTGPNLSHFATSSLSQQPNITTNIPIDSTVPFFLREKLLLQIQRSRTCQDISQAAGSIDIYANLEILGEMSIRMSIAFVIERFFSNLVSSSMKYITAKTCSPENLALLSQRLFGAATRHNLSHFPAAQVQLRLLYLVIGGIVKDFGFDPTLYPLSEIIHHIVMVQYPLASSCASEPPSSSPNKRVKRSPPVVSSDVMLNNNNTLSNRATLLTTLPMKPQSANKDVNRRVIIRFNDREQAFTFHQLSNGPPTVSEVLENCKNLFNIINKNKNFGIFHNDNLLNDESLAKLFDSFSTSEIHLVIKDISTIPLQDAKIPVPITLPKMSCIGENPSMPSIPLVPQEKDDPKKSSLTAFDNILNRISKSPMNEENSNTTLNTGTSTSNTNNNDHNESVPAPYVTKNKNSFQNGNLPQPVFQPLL
# Experiment: PBM E-score (8-mer binding enrichment) (E-score (-0.5 to 0.5)); higher = stronger / more preferred TF binding; most listed sequences are background and not binding sites
# Details: protein concentration: 200 nM; construct: GST-full length
# Procedure: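 Universal 'all 10-mer' protein binding microarrays (Agilent AMADID 015681) probed with GST-tagged S. cerevisiae TFs (full-length or DBD) made by in vitro transcription/translation (PURExpress), about 100-200 nM. Bound TF was detected with fluorescent anti-GST. Each ungapped 8-mer (which stands for itself and its reverse complement) is scored by the PBM enrichment score (E-score), a modified Wilcoxon-Mann-Whitney statistic from -0.5 to +0.5, computed with the Universal PBM Analysis Suite. Scale: above 0.35 generally sequence-specific binding.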
row,Sequence,PBM E-score
1,AGTTAGAT,-0.0498
2,ATCACCGC,0.174
3,ACCGAGCA,0.0457
4,ACTCGCCA,0.158
5,GGAATGCA,0.0844
6,ACTAGAAC,-0.0635
7,ACTTGCCA,-0.00202
8,CTCATAGC,-0.0816
9,AGGGGGAT,-0.258
10,GAATTTTA,-0.206
11,ATGTGAGG,0.0176
12,CCACAGAA,0.0862
13,GAAAACGC,-0.262
14,ATTGGGTA,-0.0824
15,AATCGCAC,-0.0344
16,AACACGAT,0.19
17,ATTTATTC,-0.0505
18,GGTACATA,0.156
19,GATCGATA,0.136
20,ACGTAATA,0.128
21,GGCCCTTA,-0.148
22,ATTATAGA,-0.198
23,CACTTAGG,-0.0835
24,CGGTTACG,-0.157
25,CTCTTCGC,-0.108

row,Sequence,PBM E-score
1,CAGGGGAG,0.0828
2,AGGGTTCC,-0.0923
3,CCGGCGAC,0.126
4,ACAATAAC,0.119
5,GCAACTCA,0.0782
6,CTACCCAG,0.0256
7,CCGCATCC,0.00835
8,TAGCCTGA,0.0109
9,CTGAAGCA,-0.103
10,ACAAAAGG,-0.167
11,GGAGACTA,0.164
12,ATTTCATG,-0.037
13,GATATGGC,0.0432
14,CCGGGAGG,0.021
15,CGAAATGA,0.19
16,CAGAAGGC,-0.0707
17,CTGTTGGA,-0.096
18,AGACAGAA,-0.126
19,ATTGAGTA,0.308
20,GGAAGAGA,-0.0859
21,CCGCCAGC,0.163
22,GAACGTCA,-0.224
23,CGGTATTA,0.155
24,ACAGATGG,-0.139
25,AGGATGAC,0.112

row,Sequence,PBM E-score
1,ATGGTCGA,-0.0168
2,ACACGTGT,0.254
3,AGAGTCAT,0.45
4,GCGCGTTA,-0.123
5,AGCGTCAA,-0.0226
6,ATTGACGC,-0.0961
7,ACTTCGAA,-0.243
8,ACCCCCAC,-0.225
9,TAAGGGGA,-0.255
10,ATAACAAT,0.119
11,ATCATCGG,0.212
12,AAGGACCA,-0.0869
13,ATATCGCA,0.0551
14,AGCGGGAT,0.07
15,CAGTATCC,0.124
16,CGGATAAC,0.0761
17,GAACCGAC,0.201
18,GGGCGCAC,-0.274
19,CTCCCTAC,-0.062
20,CGTGGTCA,0.19
21,ATAAAATG,-0.0717
22,AATATTAC,-0.0418
23,ACTCTGGC,0.164
24,CAGTCCTA,0.00457
25,CAGCGATG,0.0814

row,Sequence,PBM E-score
1,GAGCCAAC,-0.0688
2,GAGTTGAC,0.0177
3,ACCGGACT,-0.0358
4,AACTAGGC,-0.00957
5,CGCTTCCG,-0.185
6,AGTTCCCG,-0.121
7,AGCAAGAA,-0.0163
8,GGGTTTGA,-0.0336
9,ATTTCGGA,-0.0873
10,GTGTGTCA,0.248
11,GGACACGA,-0.0165
12,CATCAGAA,-0.0535
13,GAAACCCC,-0.0639
14,AGGGCTGC,-0.0649
15,TACACTAA,0.0501
16,ACATCACG,-0.0572
17,ACCGCCCC,0.325
18,ATGAGATG,0.106
19,CCCCGCTC,0.0661
20,ACGGTCCA,-0.00757
21,CGATCAAC,-0.176
22,GCTATATA,0.0669
23,GTCTGCAC,-0.11
24,AGCTTAAG,-0.122
25,AAAGAGCC,-0.178

row,Sequence,PBM E-score
1,ATGGCCTG,0.0769
2,CTTTGCTC,-0.0277
3,TAGCTGAA,-0.124
4,CCGTCCGA,-0.222
5,ACACGTCC,-0.199
6,CATTGACG,0.0587
7,CCGTAGCA,-0.122
8,GAACGAAA,-0.182
9,AGGTTAAC,-0.0375
10,CCAGTGGG,0.0379
11,GGTACTTA,-0.103
12,ACCTTTGC,-0.148
13,ATAGAGTC,0.11
14,AAATCGCT,-0.326
15,CAGTAGCC,-0.208
16,AAGATCGC,-0.25
17,CCGGGAAG,-0.0387
18,AGAGTATG,-0.175
19,CGATACAG,0.00744
20,CCAATTTC,-0.182
21,CGACAACG,-0.106
22,AACTGCGG,-0.0815
23,ATTAACGA,0.158
24,AATAGAGG,-0.155
25,CCGCCGAG,-0.0293

row,Sequence,PBM E-score
1,ATCTTACG,0.0722
2,AAGTTTGG,-0.0987
3,CTGGAGGC,0.0635
4,AGTTTATC,0.08
5,CTTTGCCA,-0.17
6,ATTGCGGC,-0.0266
7,ATTATCTG,-0.0192
8,ACCGCAAA,0.107
9,ATTCGGGA,-0.0406
10,CCATCGTA,-0.013
11,CCCGGGAA,-0.0284
12,AATTCTTA,-0.2
13,GACAGACA,0.294
14,AACATGTC,-0.0462
15,CATCGGCA,0.0451
16,CATCTTGG,-0.0375
17,AGTGATAT,0.0744
18,CGAAGTAC,0.0627
19,GAAGGGGC,-0.281
20,TGAGAACA,0.115
21,GGATTACA,-0.0213
22,ACACACAC,0.316
23,CGAGAATA,0.0924
24,ACTTATAG,-0.0878
25,AAGCGAGT,0.152

row,Sequence,PBM E-score
1,ATTAAAAG,-0.0882
2,ATAAAGAC,-0.0597
3,ATCCGCTC,0.0753
4,AAACGCGA,-0.149
5,GTCGCGTA,0.148
6,ATCGCCAT,0.0743
7,AGGTGCAA,-0.103
8,GTCGAGAA,-0.014
9,GGAAATCA,0.085
10,CCCCAAAG,-0.0224
11,ATGGACAG,-0.0202
12,ATATCTCC,0.213
13,GTGAAGAA,-0.0671
14,AGACCAAT,-0.0769
15,AGGGCGGG,0.251
16,TACTTGAA,-0.162
17,GCAGTACA,0.00185
18,CAACGAAG,-0.181
19,AGCGTACT,-0.0306
20,AAGGCCAG,-0.0252
21,CTACCAAG,-0.0191
22,ATATGTTG,0.00893
23,AGAGATAC,-0.0896
24,AGGGTGTC,0.149
25,CAGGAGAG,-0.0559

row,Sequence,PBM E-score
1,AGAGCAAA,-0.203
2,CCAAGAGG,-0.156
3,AAGATATA,-0.00704
4,CTGCAACA,-0.095
5,CCTGTGTA,0.133
6,ATCTATCA,0.137
7,CATGACGC,0.223
8,ACTTCTGC,-0.0798
9,ATTATGGG,0.152
10,CAAGACCA,-0.13
11,ATAGAATA,0.134
12,AAGGAGGC,-0.299
13,GTCTGCTA,-0.0897
14,CCCCCTCG,-0.242
15,ATGACAAG,-0.0539
16,GAGCCTTA,-0.0614
17,GACTTGGC,0.0496
18,CGTCGGCC,-0.143
19,AATACTAT,0.153
20,CGCGGGGA,0.292
21,ACCCGTAA,0.0347
22,CCCTCGAC,-0.0229
23,GTACGTAC,-0.0834
24,GTCATTCA,0.115
25,GCAAAACA,-0.0563

row,Sequence,PBM E-score
1,CACGGTGA,0.106
2,CTCGGCGC,0.193
3,GAGACCTC,0.0786
4,CGCCATAG,0.1
5,ATAGCACC,-0.148
6,AGGTCTTA,-0.189
7,ATGTAAAG,0.0242
8,CAGCATAG,-0.0287
9,CAGAGTCG,0.328
10,ACGCAATG,-0.0888
11,CGGCCATA,-0.111
12,AGTACGCA,-0.0941
13,AAGAGACG,-0.127
14,AAGGAGTG,0.0706
15,ATGTACCG,0.084
16,ACCAATAT,0.151
17,CAGACTAA,0.117
18,CGGCTCTA,0.0843
19,CTCAGAAA,-0.0969
